In PubChem BioAssay AID360 (National Center for Advancing Translational Sciences (NCATS), 2006):
In all, about 48,000 compounds went through this assay and about 550 (1.1%) were called active. Another 4% or so got no clear call; they are omitted. Rule as the data show it: active = potency below about 15 µM; inconclusive = mostly about 16 µM to 33 µM; inactive = weaker than that. The list shows a part of the results.
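Also: the screen sought inhibitors.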
Potency is read from the fitted curve at half-maximal effect.

The compounds below were run against Lysosomal acid glucosylceramidase (Homo sapiens) (UniProt P04062) (assay: Glucocerebrosidase). Settings: purified enzyme, resorufin glucoside fluorescence (screen aimed at inhibitors), 20 min.
Sequence of UniProt P04062 (P04062 whole entry, looked up): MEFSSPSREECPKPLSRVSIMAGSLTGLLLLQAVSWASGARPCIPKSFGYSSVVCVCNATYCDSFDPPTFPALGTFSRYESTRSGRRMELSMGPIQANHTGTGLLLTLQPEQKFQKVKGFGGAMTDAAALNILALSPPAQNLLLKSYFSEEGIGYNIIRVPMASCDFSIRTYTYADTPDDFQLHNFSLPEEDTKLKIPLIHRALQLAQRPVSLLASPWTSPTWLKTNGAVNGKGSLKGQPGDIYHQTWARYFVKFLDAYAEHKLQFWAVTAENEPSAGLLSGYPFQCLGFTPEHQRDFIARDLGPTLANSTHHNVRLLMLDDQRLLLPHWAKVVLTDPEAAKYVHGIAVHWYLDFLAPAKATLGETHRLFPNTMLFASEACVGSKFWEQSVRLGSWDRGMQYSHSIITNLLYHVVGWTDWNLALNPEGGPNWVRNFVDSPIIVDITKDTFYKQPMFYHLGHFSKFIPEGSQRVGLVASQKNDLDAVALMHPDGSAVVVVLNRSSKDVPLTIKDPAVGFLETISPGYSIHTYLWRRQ
How it was run: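 Compounds titrated against 0.2 nM normal enzyme, 30 uM resorufin beta-D-glucopyranoside substrate, citrate/phosphate buffer with taurocholate and tween-20, pH 5.9. Reaction ran 20 min at room temperature; fluorescence (Ex 548/Em 600) gave AC50.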
With `Cc1ccc(C)c(C(=O)NCc2ccncc2)c1` the Potency was inactive: > 76.9 µM.
With `O=C(OCc1cc(=O)n2c(n1)sc1ccccc12)c1ccc2c(=O)n3c(nc2c1)CCC3` the Potency was inactive: > 76.9 µM.
In the case of `O=C1Nc2ccc(S(=O)(=O)NCc3ccccn3)c3cccc1c23`, the Potency is reported as inactive: > 76.9 µM.
`CN1CCN(c2c(F)cc3c(=O)c(C(=O)O)cn4c3c2SCC4)CC1` was tested, and the Potency was inactive: > 76.9 µM.
With `C/C(Cl)=C\Cn1c(N2CCCCCC2)nc2c1c(=O)n(C)c(=O)n2C` the Potency was inactive: > 76.9 µM.
`N#Cc1ccccc1NC(=O)c1ccccc1OCC(=O)Nc1ccc2c(c1)oc1ccccc12` was tested, and the Potency was active: 11.2 µM.
`CCOC(=O)c1cc2c(=O)n3cccc(C)c3nc2n(Cc2ccccc2Cl)c1=N` was tested, and the Potency was inactive: > 76.9 µM.
For `CCn1c(CC(=O)Nc2cccc(OC)c2)nnc1SCC(=O)Nc1nccs1`, the Potency was inactive: > 76.9 µM.
For `CCOc1ccc(Cc2nc(-c3nonc3N)no2)cc1OCC`, the Potency was inactive: > 76.9 µM.
`CCN1CCCC1CNC(=O)C1CCN(Cc2nc(-c3cccc(Br)c3)oc2C)CC1` (centres undefined) was tested, and the Potency was inactive: > 76.9 µM.
`CCOC(=O)c1cc(C)sc1NC(=O)C1CCC1` was tested, and the Potency was inactive: > 76.9 µM.
In the case of `Cc1ccc(SC(C)C(=O)NCC(C)C)cc1` (centres undefined), the Potency is reported as inactive: > 76.9 µM.
For `O=C(CSC1=NCCS1)N1CCCC1`, the Potency was inactive: > 76.9 µM.
In the case of `Cc1ccc(-n2ncc3c(=O)n(CC(=O)N4CCCCCC4)cnc32)cc1`, the Potency is reported as inactive: > 76.9 µM.
With `Cc1ccccc1NC(=O)c1cccc2nccnc12` the Potency was inactive: > 76.9 µM.
With `O=C(CCCn1c(SCC(=O)NC2CCCCC2)nc2ccccc2c1=O)NCC1CCCO1` (centres undefined) the Potency was inactive: > 76.9 µM.
For `CCOC(=O)C1=C(C)OC(N)=C(C#N)C1c1c(C)nn(-c2ccccc2)c1Cl` (centres undefined), the Potency was inactive: > 76.9 µM.
With `COC(=O)C1=C(N)Oc2cc(C)n(CCc3ccccc3)c(=O)c2C1c1cccnc1` (centres undefined) the Potency was inactive: > 76.9 µM.
For `CCCC(=O)N1CCN(c2ccc(NC(=O)c3ccccc3)cc2)CC1`, the Potency was inactive: > 76.9 µM.
`Brc1cccc(-c2nnc3sc(CN4CCCCC4)cn23)c1` was tested, and the Potency was inactive: > 76.9 µM.
`O=C(c1noc2c1CCCC2)N1CCN(c2ccccc2)CC1` was tested, and the Potency was inactive: > 76.9 µM.
For `COc1cc2[nH]c(=S)nc(NCC3CCCO3)c2cc1OC` (centres undefined), the Potency was “inactive”.
`CN1CC[n+]2c(CN3C(=O)c4ccccc4C3=O)csc21` was tested, and the Potency was inactive: > 76.9 µM.
`Cc1ccc(-c2c3c(=O)n(C)c(=O)n(C)c3cn2Cc2cccnc2)cc1` was tested, and the Potency was inactive: > 76.9 µM.
In the case of `CCNC(=O)c1sc(=S)n(CC)c1N`, the Potency is reported as inactive: > 76.9 µM.
With `CCCCCNC(=O)C(C#N)c1nc2ccccc2nc1N1CCCC1` (centres undefined) the Potency was inactive: > 76.9 µM.
`Cc1ccc(N2C(=O)CSC2c2cccs2)cc1` (centres undefined) was tested, and the Potency was inactive: > 76.9 µM.
`CCOC(=O)c1cc2sc(C)cc2n1CC(=O)N1CCN(C(=O)c2ccco2)CC1` was tested, and the Potency was inactive: > 76.9 µM.
`Cc1ccc(S(=O)(=O)NC2CCCC(C(=O)O)C2)cc1` (centres undefined) was tested, and the Potency was inactive: > 76.9 µM.
For `CS(=O)(=O)N1CCN(c2ncccn2)CC1`, the Potency was inactive: > 76.9 µM.
For `O=C(O)C1C2C=CC3(CN(c4cccc(C(F)(F)F)c4)C(=O)C13)O2` (centres undefined), the Potency was inactive: > 76.9 µM.
For `O=C(O)CN1C(=O)Nc2ccc(Br)cc2C1c1ccccc1` (centres undefined), the Potency was inactive: > 76.9 µM.
`CCOC(=O)CN1C(=O)CSc2ccccc21` was tested, and the Potency was inactive: > 76.9 µM.
With `Cc1sc2ncn(CC(=O)OC(C)C(=O)NC(C)(C)C)c(=O)c2c1C` (centres undefined) the Potency was inactive: > 76.9 µM.
In the case of `Cc1ccc(N2CC(C(=O)NCCC(C)C)CC2=O)cc1` (centres undefined), the Potency is reported as inactive: > 76.9 µM.
`Fc1ccc(-n2cnnn2)c(F)c1` was tested, and the Potency was inactive: > 76.9 µM.
In the case of `c1ccc2c(c1)CCN(c1nc3cc4c(cc3s1)OCO4)C2`, the Potency is reported as inactive: > 76.9 µM.
With `Cn1c(=O)c2c(SCc3cccc(C(F)(F)F)c3)nc(-c3ccco3)nc2n(C)c1=O` the Potency was inactive: > 76.9 µM.
For `Cc1ccc(N2C(=O)CSC2c2cccnc2)cc1F` (centres undefined), the Potency was inactive: > 76.9 µM.
With `COC(=O)c1ccc(C)c(NC(=O)CN(c2ccc3c(c2)OCO3)S(C)(=O)=O)c1` the Potency was inactive: > 76.9 µM.
`COc1cccc(N(C(=O)CNC(=O)c2ccco2)C(C(=O)NC2CCCC2)c2ccncc2)c1` (centres undefined) was tested, and the Potency was inactive: > 76.9 µM.
With `COCCn1cnnc1SCC(=O)c1ccc(S(=O)(=O)N2CCCC2)cc1` the Potency was inactive: > 76.9 µM.
With `O=C(O)CCC(=O)Nc1ccccc1N1CCOCC1` the Potency was inactive: > 76.9 µM.
`CCn1c(SCC(=O)NCc2cccs2)nnc1-c1cccs1` was tested, and the Potency was inactive: > 76.9 µM.
In the case of `O=c1c2cc(N3CCOCC3)ccc2[nH]c(=S)n1CCCN1CCCCC1`, the Potency is reported as inactive: > 76.9 µM.
In the case of `O=C1c2ccccc2NC2CCCCCN12` (centres undefined), the Potency is reported as inactive: > 76.9 µM.
With `O=C(CS(=O)(=O)Cc1ccccc1)N1CCN(c2cccc(C(F)(F)F)c2)CC1` the Potency was inactive: > 76.9 µM.
For `COc1ccc(C2CC(C(F)(F)F)n3ncc(C(=O)NCc4cccnc4)c3N2)cc1OC` (centres undefined), the Potency was inactive: > 76.9 µM.
With `CCC(CCC(=O)Nc1cccc(C(=O)O)c1)C(=O)O` (centres undefined) the Potency was inactive: > 76.9 µM.
`Nc1cc(N)nc(SCC(=O)N2CCCCC2)n1` was tested, and the Potency was inactive: > 76.9 µM.
For `CCOC(=O)CSc1nnc(CNC(=O)c2cccc(C)c2)n1-c1ccccc1OC`, the Potency was inactive: > 76.9 µM.
`Cc1cc(C(F)(F)F)n2ncc(-c3ccccc3)c2n1` was tested, and the Potency was inactive: > 76.9 µM.
`CCC(C)c1ccc(NC(=O)C2CCCN(c3ncccn3)C2)cc1` (centres undefined) was tested, and the Potency was inactive: > 76.9 µM.
`COc1ccc(C(CC(=O)O)NC(=O)Cc2ccccc2)cc1` (centres undefined) was tested, and the Potency was inactive: > 76.9 µM.
For `CCOC(=O)c1c(-c2ccc(C)o2)csc1NC(=O)COC(=O)c1cccs1`, the Potency was inactive: > 76.9 µM.
`Cc1ccc(SCCNC(=O)C(C)C)cc1` was tested, and the Potency was inactive: > 76.9 µM.
With `COc1ccc(OC)c(S(=O)(=O)N2CCN(C34CC5CC(CC(C5)C3)C4)CC2)c1` the Potency was inactive: > 76.9 µM.
`O=C(Cn1[nH]c(=O)c2ccccc2c1=O)NC1CCN(Cc2ccccc2)CC1` was tested, and the Potency was inactive: > 76.9 µM.
In the case of `COc1ccccc1NC(=O)CSc1nnc(-c2ccncc2)o1`, the Potency is reported as inactive: > 76.9 µM.
